Laboratory results published in a protein production outcome set (Wang et al. 2014).

Test: label from the status in PepcDB records
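Further: failed if final PepcDB status was selected cloned or expressed and not failed if soluble or beyond.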

Q: With “MEWDNGTGQALGLPPTTCVYRENFKQLLLPPVYSAVLAAGLPLNICVITQICTSRRALTRTAVYTLNLALADLLYACSLPLLIYNYAQGDHWPFGDFACRLVRFLFYANLHGSILFLTCISFQRYLGICHPLAPWHKRGGRRAAWLVCVAVWLAVTTQCLPTAIFAATGIQRNRTVCYDLSPPALATHYMPYGMALTVIGFLLPFAALLACYCLLACRLCRQDGPAEPVAQERRGKAARMAVVVAAAFAISFLPFHITKTAYLAVRSTPGVPCTVLEAFAAAYKGTRPFASANSVLDPILFYFTQKKFRRRPHELLQKLTAKWQRQGR” as the sequence, how does the protein production read?
A: not failed

Q: For “MGNHTWEGCHVDSRVDHLFPPSLYIFVIGVGLPTNCLALWAAYRQVQQRNELGVYLMNLSIADLLYICTLPLWVDYFLHHDNWIHGPGSCKLFGFIFYTNIYISIAFLCCISVDRYLAVAHPLRFARLRCVKTAVAVSSVVWATELGANSAPLFHDELFRDRYNHTFCFEKFPMEGWVAWMNLYRVFVGFLFPWALMLLSYRGILRAVRGSVSTERQEKAKIKRLALSLIAIVLVCFAPYHVLLLSRSAIYLGRPWDCGFEERVFSAYHSSLAFTSLNCVADPILYCLVNEGARSDVAKALHNLLRFLASDKPQEMANASLTLETPLTSKRNSTAKAMTGSWAATPPSQGDQVQLKMLPPAQ”, which protein production is on record?
A: failed

Q: Which protein production does the source give for “MNESRWTEWRILNMSSGVVNVSERHSCPLGFGHYSVVDVCIFETVVIVLLTFLIIAGNLTVIFVFHCAPLLHHYTTSYFIQTMAYADLFVGVSCLVPTLSLLHYSTGVHESLTCQVFGYIISVLKSVSMACLACISVDRYLAITKPLSYNQLVTPCRLRICIILIWIYSCLIFLPSFFGWGKPGYHGDIFEWCATSWLTSAYFTGFIVCLLYAPAAFVVCFTYFHIFKICRQHTKEINDRRARFPSHEVDSSRETGHSPDRRYTMVLFRITSVFYMLWLPYIIYFLLESSRVLDNPTLSFLTTWLAISNSFCNCVIYSLSNSVFRLGLRRLSETMCTSCMCVKDQEAQEPKPRKRANSCSI” here?
A: failed

Q: Which protein production does the source give for “MNGTYNTCGSSDLTWPPAIKLGFYAYLGVLLVLGLLLNSLALWVFCCRMQQWTETRIYMTNLAVADLCLLCTLPFVLHSLRDTSDTPLCQLSQGIYLTNRYMSISLVTAIAVDRYVAVRHPLRARGLRSPRQAAAVCAVLWVLVIGSLVARWLLGIQEGGFCFRSTRHNFNSMAFPLLGFYLPLAVVVFCSLKVVTALAQRPPTDVGQAEATRKAARMVWANLLVFVVCFLPLHVGLTVRLAVGWNACALLETIRRALYITSKLSDANCCLDAICYYYMAKEFQEASALAVAPRAKAHKSQDSLCVTLA” here?
A: failed

Q: Which protein production does the source give for “MSVDPACPQSLPCFEASDCKESSPMPVICGPEENYPSLQMSSAEMPHTETVSPLPSSMDLLIQDSPDSSTSPKGKQPTSAEKSVAKKEDKVPVKKQKTRTVFSSTQLCVLNDRFQRQKYLSLQQMQELSNILNLSYKQVKTWFQNQRMKSKRWQKNNWPKNSNGVTQKASAPTYPSLYSSYHQGCLVNPTGNLPMWSNQTWNNSTWSNQTQNIQSWSNHSWNTQTWCTQSWNNQAWNSPFYNCGEESLQSCMQFQPNSPASDLEAALEAAGEGLNVIQQTTRYFSTPQTMDLFLNYSMNMQPEDV” here?
A: failed

Q: Which protein production does the source give for “MYSGNRSGGHGYWDGGGAAGAEGPAPAGTLSPAPLFSPGTYERLALLLGSIGLLGVGNNLLVLVLYYKFQRLRTPTHLLLVNISLSDLLVSLFGVTFTFVSCLRNGWVWDTVGCVWDGFSGSLFGIVSIATLTVLAYERYIRVVHARVINFSWAWRAITYIWLYSLAWAGAPLLGWNRYILDVHGLGCTVDWKSKDANDSSFVLFLFLGCLVVPLGVIAHCYGHILYSIRMLRCVEDLQTIQVIKILKYEKKLAKMCFLMIFTFLVCWMPYIVICFLVVNGHGHLVTPTISIVSYLFAKSNTVYNPVIYVFMIRKFRRSLLQLLCLRLLRCQRPAKDLPAAGSEMQIRPIVMSQKDGDRPKKKVTFNSSSIIFIITSDESLSVDDSDKTNGSKVDVIQVRPL” here?
A: failed
